In PubChem BioAssay (NCI):
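Assay format: 96-well plates, 48-hour exposure. Here, GI50 denotes the concentration required for 50% inhibition of growth.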 For part of its entries the source gives two or more results. Only these are listed. The source may hold further records. Records of one sample usually come from different ranges of test concentrations, not given here; some values may only mark the edge of a range.

Tested on: MDA-MB-468 breast
Test: NCI-60 cell line screen, 48 h

With CN(Cc1cnc2nc(N)nc(N)c2n1)c1ccc(C(=O)N[C@@H](CCC(=O)O)C(=O)O)cc1 the GI50 was 29.1 nM and 633 nM.
